From the supplement of paper PMC7238544 come the findings set out here.

Where a name gives a salt, the structure may show the parent alone. ± gives the standard deviation of the averaged measurements. The list shows a part of the results.

Conditions in all cases: priming compound concentration 100 µM
In assay [1] the test system is hAMSC donor 1. Description: Hoechst total cell count ratio vs vehicle control; higher = more cells (less toxicity).
The subject of assay [2] is hAMSC donor 2. The description is as above.
Assay [3] has as its system hAMSC donor 1. Put plainly: transgenic luciferase activity (RLU/mg protein) fold change vs vehicle control (ratio); higher = more transgene expression.
The test system of assay [4] is hAMSC donor 2. Described as above.
The subject of assay [5] is hAMSC donor 1. Put plainly: transfection efficiency (EGFP+ cells / Hoechst count) fold change vs vehicle control (ratio); hAMSC are human adipose-derived mesenchymal stem cells given an EGFP-luciferase plasmid by lipofection; higher = enhanced transfection.
The test system of assay [6] is hAMSC donor 2. The description is as above.
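For Hoechst total cell count ratio vs vehicle control in this document: compound added 30 min before Lipofectamine 3000 lipoplex delivery, triplicate-well means expressed against DMSO vehicle control wells of the same 96-well plate.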
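For transfection efficiency (EGFP+ cells / Hoechst count) fold change vs vehicle control in this document: compounds added 30 min before Lipofectamine 3000 lipoplex transfection, triplicate means relative to DMSO vehicle wells on the same plate, luciferase RLU normalized to BCA total protein.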
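For transgenic luciferase activity (RLU/mg protein) fold change vs vehicle control in this document: compounds in DMSO added 30 min before Lipofectamine 3000 transfection of pEGFP-Luc in 96-well plates, values are means of triplicate wells over DMSO vehicle wells on the same plate.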

As to `CCOC(=O)c1ccc(OC(=O)CCCCCNC(=N)N)cc1` [Gabexate mesilate], the “Hoechst total cell count ratio” value with hAMSC donor 1 [1] was 1.79 ± 0.2; in the assay with hAMSC donor 2 [2], 1.06 ± 0.12. Also, the results for the transgenic luciferase activity in the assay with hAMSC donor 1 [3] and in the assay on hAMSC donor 2 [4] were 0.272 ± 0.085 and 0.617 ± 0.12, respectively. Moreover, the transfection efficiency in the assay on hAMSC donor 1 [5] came out at 0.947 ± 0.17; with hAMSC donor 2 [6] it was 0.555 ± 0.14.

In the case of `CN(C/C=C/C#CC(C)(C)C)Cc1cccc2ccccc12` [Terbinafine hydrochloride], the “Hoechst total cell count ratio” value was 1.24 ± 0.22 with hAMSC donor 1 [1] and 0.819 ± 0.082 in the assay with hAMSC donor 2 [2]. The transgenic luciferase activity came to 0.481 ± 0.15 in the assay with hAMSC donor 1 [3] and 0.4 ± 0.021 with hAMSC donor 2 [4]. Moreover, the transfection efficiency was found to be 0.535 ± 0.16 in the assay on hAMSC donor 1 [5] and 0.734 ± 0.035 with hAMSC donor 2 [6].

As for `Nc1nc(=O)c2nc(CNc3ccc(C(=O)N[C@@H](CCC(=O)O)C(=O)O)cc3)cnc2[nH]1` [Folic acid], the “Hoechst total cell count ratio” value came out at 0.89 ± 0.21 with hAMSC donor 1 [1] and 1.09 ± 0.042 in the assay with hAMSC donor 2 [2]. The values for the transgenic luciferase activity in the assay on hAMSC donor 1 [3] and with hAMSC donor 2 [4] were 1.66 ± 0.81 and 0.892 ± 0.12, respectively. The transfection efficiency with hAMSC donor 1 [5] worked out at 1.29 ± 0.48; with hAMSC donor 2 [6], 1 ± 0.069.

In the case of `Nc1ccc2cn[nH]c2c1` [6-Aminoindazole], the “Hoechst total cell count ratio” value with hAMSC donor 1 [1] is 1.44 ± 0.37; in the assay with hAMSC donor 2 [2], 1.08 ± 0.093. Also, the transgenic luciferase activity in the assay on hAMSC donor 1 [3] amounted to 1.34 ± 1.1; in the assay with hAMSC donor 2 [4], 1.28 ± 0.17. Also, the transfection efficiency in the assay on hAMSC donor 1 [5] was found to be 0.682 ± 0.23; with hAMSC donor 2 [6] it was 0.98 ± 0.054.

For `CN1C2CCCC1CC(NC(=O)c1nn(C)c3ccccc13)C2` (stereo not drawn) [Granisetron hydrochloride], the “Hoechst total cell count ratio” value in the assay with hAMSC donor 1 [1] is 1.88 ± 0.33; in the assay with hAMSC donor 2 [2] it was 1.16 ± 0.093. The transgenic luciferase activity was found to be 1.04 ± 0.26 in the assay on hAMSC donor 1 [3] and 0.756 ± 0.093 in the assay on hAMSC donor 2 [4]. Besides, the transfection efficiency with hAMSC donor 1 [5] turned out to be 0.8 ± 0.21; in the assay with hAMSC donor 2 [6], 0.828 ± 0.068.

For the molecule `COc1cc(N)c(Cl)cc1C(=O)NC1CCN(CCCOc2ccc(F)cc2)CC1OC` (stereo not drawn) [Cisapride hydrate], the “Hoechst total cell count ratio” value was determined as 1.23 ± 0.049 in the assay with hAMSC donor 1 [1] and 1.45 ± 0.14 in the assay on hAMSC donor 2 [2]. For the same molecule, the figures for the transgenic luciferase activity with hAMSC donor 1 [3] and in the assay on hAMSC donor 2 [4] were 0.949 ± 0.095 and 0.805 ± 0.069, respectively. Also, the transfection efficiency in the assay with hAMSC donor 1 [5] is 1.41 ± 0.33; in the assay on hAMSC donor 2 [6], 2.87 ± 1.

`COc1ccc2cc(CCC(C)=O)ccc2c1` [Nabumetone]: the figures for the “Hoechst total cell count ratio” value with hAMSC donor 1 [1] and in the assay with hAMSC donor 2 [2] were 1.22 ± 0.093 and 1.51 ± 0.24, respectively. Further, the transgenic luciferase activity with hAMSC donor 1 [3] is 2.45 ± 0.4; in the assay on hAMSC donor 2 [4], 3.23 ± 0.63. The transfection efficiency with hAMSC donor 1 [5] amounted to 1.28 ± 0.34; with hAMSC donor 2 [6], 1.72 ± 0.28.

Take `CCCOc1ccc(C(=O)OCCN(CC)CC)cc1N` [Proxymetacaine]: the “Hoechst total cell count ratio” value in the assay with hAMSC donor 1 [1] was 1.43 ± 0.26; in the assay on hAMSC donor 2 [2] it was 1.08 ± 0.19. Further, the transgenic luciferase activity in the assay on hAMSC donor 1 [3] is 0.732 ± 0.12; in the assay with hAMSC donor 2 [4] it was 0.923 ± 0.21. Besides, the transfection efficiency is 0.984 ± 0.031 with hAMSC donor 1 [5] and 0.888 ± 0.11 in the assay with hAMSC donor 2 [6].

In the case of `C=CC[C@@H]1/C=C(\C)C[C@H](C)C[C@H](OC)[C@H]2O[C@@](O)(C(=O)C(=O)N3CCCC[C@H]3C(=O)O[C@H](/C(C)=C/[C@@H]3CC[C@@H](O)[C@H](OC)C3)[C@H](C)[C@@H](O)CC1=O)[C@H](C)C[C@@H]2OC` [Tacrolimus], the “Hoechst total cell count ratio” value was 0.131 ± 0.064 in the assay on hAMSC donor 1 [1] and 0.124 ± 0.074 in the assay with hAMSC donor 2 [2]. Further, the transgenic luciferase activity in the assay with hAMSC donor 1 [3] came to 0.0338 ± 0.031; in the assay on hAMSC donor 2 [4], 0.00184 ± 0.00052. The transfection efficiency in the assay on hAMSC donor 1 [5] stood at 0.42 ± 0.44; in the assay on hAMSC donor 2 [6], 0.138 ± 0.036.

Regarding `CCc1ccc(CCOc2ccc(CC3SC(=O)NC3=O)cc2)nc1` (stereo not drawn) [Pioglitazone hydrochloride], the “Hoechst total cell count ratio” value in the assay on hAMSC donor 1 [1] stood at 3.03 ± 0.13; with hAMSC donor 2 [2] it was 1.12 ± 0.11. For the same molecule, the transgenic luciferase activity with hAMSC donor 1 [3] was determined as 0.531 ± 0.15; in the assay on hAMSC donor 2 [4], 0.817 ± 0.58. The results for the transfection efficiency in the assay with hAMSC donor 1 [5] and in the assay with hAMSC donor 2 [6] were 2.04 ± 0.054 and 2.65 ± 0.41, respectively.

With `COc1cccc2c1C(=O)c1c(O)c3c(c(O)c1C2=O)C[C@@](O)(C(=O)CO)C[C@@H]3O[C@H]1C[C@H](N)[C@@H](O)[C@H](C)O1` [Epirubicin hydrochloride], the “Hoechst total cell count ratio” value in the assay with hAMSC donor 1 [1] is 0.045 ± 0.0052; with hAMSC donor 2 [2], 0.026 ± 0.0044. Besides, the transgenic luciferase activity in the assay on hAMSC donor 1 [3] turned out to be 0.000716 ± 0.00055; in the assay with hAMSC donor 2 [4] it was 0.000723 ± 0.00045. For the same molecule, the transfection efficiency in the assay with hAMSC donor 1 [5] was determined as 2.06 ± 0.97; with hAMSC donor 2 [6] it was 2.31 ± 0.61.

Regarding `CCOC(=O)[C@H](CCc1ccccc1)N[C@@H](C)C(=O)N1Cc2ccccc2C[C@H]1C(=O)O` [Quinapril hydrochloride], the “Hoechst total cell count ratio” value in the assay with hAMSC donor 1 [1] came out at 1.38 ± 0.21; in the assay on hAMSC donor 2 [2], 1.13 ± 0.14. Moreover, the transgenic luciferase activity in the assay on hAMSC donor 1 [3] stood at 1.5 ± 0.46; in the assay with hAMSC donor 2 [4] it was 0.318 ± 0.11. Moreover, the transfection efficiency with hAMSC donor 1 [5] is 0.783 ± 0.21; in the assay with hAMSC donor 2 [6] it was 1.14 ± 0.25.

Take `CC1(C)C[C@@H]1C(=O)N/C(=C\CCCCSC[C@H](N)C(=O)O)C(=O)O` [Cilastatin sodium]: the “Hoechst total cell count ratio” value in the assay with hAMSC donor 1 [1] amounted to 0.974 ± 0.091; in the assay with hAMSC donor 2 [2] it was 0.983 ± 0.096. Besides, the transgenic luciferase activity in the assay on hAMSC donor 1 [3] came to 1.55 ± 0.33; in the assay on hAMSC donor 2 [4] it was 1.29 ± 0.19. Further, the transfection efficiency in the assay on hAMSC donor 1 [5] was found to be 1.37 ± 0.2; in the assay with hAMSC donor 2 [6] it was 1.03 ± 0.18.

Regarding `NC(=O)N1c2ccccc2CC(=O)c2ccccc21` [Oxcarbazepine], the “Hoechst total cell count ratio” value with hAMSC donor 1 [1] turned out to be 1.85 ± 0.058; with hAMSC donor 2 [2] it was 1.33 ± 0.11. Besides, the transgenic luciferase activity in the assay with hAMSC donor 1 [3] was found to be 0.33 ± 0.097; in the assay on hAMSC donor 2 [4], 1.03 ± 0.46. Further, the results for the transfection efficiency in the assay on hAMSC donor 1 [5] and in the assay on hAMSC donor 2 [6] were 0.342 ± 0.011 and 0.637 ± 0.011, respectively.

Regarding `NCCc1ccc(O)c(O)c1` [Dopamine hydrochloride], the “Hoechst total cell count ratio” value in the assay on hAMSC donor 1 [1] was 1.2 ± 0.061; with hAMSC donor 2 [2], 1.11 ± 0.059. Besides, the transgenic luciferase activity was 0.411 ± 0.057 with hAMSC donor 1 [3] and 0.706 ± 0.16 in the assay with hAMSC donor 2 [4]. Also, the transfection efficiency was found to be 0.636 ± 0.22 with hAMSC donor 1 [5] and 0.757 ± 0.077 with hAMSC donor 2 [6].

With `O=c1n(CCCN2CCN(c3cccc(Cl)c3)CC2)nc2ccccn12` [Trazodone hydrochloride], the figures for the “Hoechst total cell count ratio” value with hAMSC donor 1 [1] and with hAMSC donor 2 [2] were 1.04 ± 0.036 and 1.28 ± 0.086, respectively. Besides, the transgenic luciferase activity in the assay with hAMSC donor 1 [3] worked out at 2.35 ± 0.47; in the assay on hAMSC donor 2 [4], 1.38 ± 0.76. Moreover, the transfection efficiency stood at 1.24 ± 0.46 in the assay with hAMSC donor 1 [5] and 1.44 ± 0.46 in the assay with hAMSC donor 2 [6].

Turning to `CCCc1nc(C)c2c(=O)nc(-c3cc(S(=O)(=O)N4CCN(CC)CC4)ccc3OCC)[nH]n12` [Vardenafil citrate], the figures for the “Hoechst total cell count ratio” value with hAMSC donor 1 [1] and in the assay with hAMSC donor 2 [2] were 1.59 ± 0.12 and 1.21 ± 0.11, respectively. Besides, the transgenic luciferase activity with hAMSC donor 1 [3] was found to be 0.807 ± 0.7; in the assay with hAMSC donor 2 [4], 0.611 ± 0.22. The transfection efficiency is 0.976 ± 0.043 with hAMSC donor 1 [5] and 0.596 ± 0.11 with hAMSC donor 2 [6].

`Cc1ccccc1C(OCCN(C)C)c1ccccc1` (stereo not drawn) [Orphenadrine hydrochloride]: the “Hoechst total cell count ratio” value in the assay with hAMSC donor 1 [1] amounted to 1.24 ± 0.15; with hAMSC donor 2 [2], 1.39 ± 0.15. Besides, the values for the transgenic luciferase activity in the assay on hAMSC donor 1 [3] and with hAMSC donor 2 [4] were 0.382 ± 0.15 and 0.718 ± 0.054, respectively. Also, the transfection efficiency was 0.786 ± 0.29 in the assay with hAMSC donor 1 [5] and 0.637 ± 0.083 in the assay on hAMSC donor 2 [6].
